Screen size: about 48,000 compounds; about 1,200 (2.5%) were called active. About 2% were inconclusive and are not listed.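 How the source made its calls: active means activation of at least 60% and not above a set upper limit (about 1 call in 100 departs from these limits); inconclusive means activation of 40% to 60%, or above that upper limit; inactive means activation under 40%.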 Some of the results follow.

Among the data in PubChem BioAssay AID1346428 (National Center for Advancing Translational Sciences (NCATS), 2018) are activation values, retold here.

Sequence of UniProt O75388 (O75388 whole entry, looked up): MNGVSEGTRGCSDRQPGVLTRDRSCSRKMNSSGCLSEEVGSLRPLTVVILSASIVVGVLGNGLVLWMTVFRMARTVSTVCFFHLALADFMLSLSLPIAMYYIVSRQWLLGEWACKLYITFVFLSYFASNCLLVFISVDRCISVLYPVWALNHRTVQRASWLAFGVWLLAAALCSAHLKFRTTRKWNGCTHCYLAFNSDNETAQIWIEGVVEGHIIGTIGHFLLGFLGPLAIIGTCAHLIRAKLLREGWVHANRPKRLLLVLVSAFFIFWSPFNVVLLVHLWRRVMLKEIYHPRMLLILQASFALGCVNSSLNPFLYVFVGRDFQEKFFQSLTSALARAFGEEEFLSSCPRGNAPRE

In the test the target is Probable G-protein coupled receptor 32 (Homo sapiens) (UniProt O75388). The experiment in a line: qHTS for Agonists of Human Resolvin D1 Receptor DRV1. Further: 0% is about no effect. As to conditions: CHO-K1 GPR32 beta-arrestin PathHunter luminescence, 90 min; at 76.9 µM; hits give high values; zero percent set by DMSO-only wells. The method, boiled down:
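Readings come from a cell-based beta-arrestin complementation format: CHO-K1 GPR32 stable cells (2,500/well) treated 90 min with compounds, then beta-Gal substrate added for 1 h before chemiluminescence imaging.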
`Cc1ccc(CCNC(=O)c2ccc(CSCc3ccc(C)cc3)o2)cc1`: the activation is inactive: -10.2%.
As to `CCOC(=O)c1ccc(NC(=O)c2cc3c(n(-c4ccc(C)cc4)c2=O)CC(C)(C)CC3=O)cc1`, the activation was inactive: -2.36%.
The figure for `Cn1c(C(=O)N2CCC(C(=O)NCCc3ccc(S(N)(=O)=O)cc3)CC2)cc2sccc21` is inactive: -13.3%; for `CCc1ccc(NC(=O)Cn2c(=O)ccc3cc(S(=O)(=O)N4CCCC4)ccc32)cc1` it is inactive: 13%.
The figure for `Cc1ccc(NC(=O)CSc2nnc(C)c(=O)[nH]2)cc1` is inactive: -5.48%.
`CCCOc1ccccc1C(=O)N1CCCCC1CCN1CCCCC1` (stereo not drawn): the activation is inactive: -14.7%.
For `CN1CC(=O)N2[C@H](c3ccc4c(c3)OCO4)c3[nH]c4ccccc4c3C[C@@H]2C1=O`, the activation was inactive: -4.13%.
With `CCc1ccc(-n2nc(C)c3c(C(=O)Nc4ccc(Cl)cc4)cc(C)nc32)cc1` the figure was inactive: -0.39%; with `CCCCNC(=O)CSc1nc(-c2ccc(OC)cc2)cc(C(F)(F)F)n1`, inactive: -5.93%.
Regarding `Cc1ccc(C)c(-c2ccc(=O)n(C(C)C(=O)Nc3ccccc3C(F)(F)F)n2)c1` (stereo not drawn), the activation is inactive: -8.22%.
The figure for `CCC(=O)N1c2ccccc2CC1C(=O)NCCc1ccccc1OC` (stereo not drawn) is inactive: -12.4%; for `O=C(NC1CC(=O)N(c2cccc(F)c2)C1)c1ccc(S(=O)(=O)N2CCCCC2)cc1` (stereo not drawn) it is inactive: -2.03%.
As for `COc1ccc(OC)c(-n2nnc(-c3nc(-c4ccc5c(c4)OCO5)no3)c2C)c1`, the activation was inactive: -19.9%.
The figure for `COc1ccc(C(=O)Nc2cc(-c3nc4ncccc4o3)ccc2C)cc1Br` is inactive: 3.78%.
Take `COC(=O)c1ccccc1NC(=O)CCn1c(=O)c2cccn2c2cccnc21`: the activation is inactive: -3.9%.
With `Cc1ccc(OCC(=O)Nc2nnc(SCc3cc(=O)n4cc(C)ccc4n3)s2)cc1` the figure was inactive: -6.03%.
The figure for `Cc1noc(-c2ccc(N(C)Cc3ccccc3)c([N+](=O)[O-])c2)n1` is inactive: 0.997%; for `CC(=O)Nc1ccc(C)cc1-c1nc2ccccc2n(Cc2cccc(Br)c2)c1=O` it is inactive: 0.251%; for `COc1ccc(OCc2nc(-c3ccc(OC)c(OC)c3)no2)cc1` it is inactive: 10.8%.
Regarding `CC(=O)Nc1c(C)nn(-c2ccccc2)c1N1CCC(C(=O)Nc2ccc(C)cc2Cl)CC1`, the activation is inactive: -6.16%.
In the case of `COc1ccc(CCNc2oc(/C=C/c3ccc(OC)c(OC)c3)nc2C#N)cc1`, the activation was inactive: 0.937%.
With `CCc1ccc(NS(=O)(=O)c2cc(Br)cc3c2N(C(C)=O)CC3)cc1` the figure was inactive: -5.02%.
With `CC(=O)Nc1ccc(NC(=O)c2ccc3c(c2)CCN3S(=O)(=O)c2ccc(Cl)cc2)cc1` the figure was inactive: 8.31%.
